# From the supplement of paper PMC8728848
# Some of the results follow.
# B1: TbCVNHOa (Tuber borchii), Q5MK11 (protein)
# chain: GSHIGPYMSYADSSRNAVLTNGGRTLRAECRNADGNWVTSELDLDTCIGNPNGFLGWGMQNFSHSSEDIKLEEGGRKLTCRPKTVDGGFRERQGIDLNRIQNVNGRLVFQ
# Assays:
# Assay in all cases: glycan array binding signal (z-score within array); higher = stronger binding
# Conditions in all cases: glycan notation: IUPAC condensed, linker removed
# [1] = target: Neu5Ac(a2-3)Gal(b1-3)GalNAc(b1-3)Gal(a1-4)Gal(b1-4)Glc
# Summary of the method: (§1)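 Negative Z-scores can be read as non-binding. The Z-score is calculated within each array and then averaged across arrays of one protein sequence at different concentrations or buffers and across linkers. Arrays, 3228 in all, were curated from the Consortium for Functional Glycomics database and kept only where the protein sequence was available.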
# [2] = target: Neu5Ac(a2-3)Gal(b1-3)GalNAc(b1-4)[Neu5Ac(a2-3)]Gal(b1-4)Glc
# Summary of the method: as §1
# [3] = target: Neu5Ac(a2-3)Gal(b1-3)GalNAc6S
# Summary of the method: as §1
# [4] = target: Neu5Ac(a2-3)Gal(b1-3)GlcNAc
# Summary of the method: as §1
# [5] = target: Neu5Ac(a2-3)Gal(b1-3)GlcNAc(b1-3)Gal(b1-4)GlcNAc
# Summary of the method: as §1
# [6] = target: Neu5Ac(a2-3)Gal(b1-3)GlcNAc6S
# Summary of the method: as §1
# [7] = target: Neu5Ac(a2-3)Gal(b1-3)[Fuc(a1-4)]GlcNAc
# Summary of the method: as §1
# [8] = target: Neu5Ac(a2-3)Gal(b1-3)[Fuc(a1-4)]GlcNAc(b1-3)Gal(b1-4)[Fuc(a1-3)]GlcNAc
# Summary of the method: as §1
# [9] = target: Neu5Ac(a2-3)Gal(b1-3)[Neu5Ac(a2-3)Gal(b1-4)]GlcNAc
# Summary of the method: as §1
# [10] = target: Neu5Ac(a2-3)Gal(b1-3)[Neu5Ac(a2-6)]GalNAc
# Summary of the method: as §1
# Neu5Ac(a2-3)Gal(b1-4)Glc = target: Neu5Ac(a2-3)Gal(b1-4)Glc
# Summary of the method: as §1
# [11] = target: Neu5Ac(a2-3)Gal(b1-4)GlcNAc
# Summary of the method: as §1
# [12] = target: Neu5Ac(a2-3)Gal(b1-4)GlcNAc(b1-3)Gal(b1-4)GlcNAc
# Summary of the method: as §1
# [13] = target: Neu5Ac(a2-3)Gal(b1-4)GlcNAc(b1-3)Gal(b1-4)GlcNAc(b1-3)Gal(b1-4)GlcNAc
# Summary of the method: as §1
# [14] = target: Neu5Ac(a2-3)Gal(b1-4)GlcNAc(b1-3)Gal(b1-4)[Fuc(a1-3)]GlcNAc
# Summary of the method: as §1
# [15] = target: Neu5Ac(a2-3)Gal(b1-4)GlcNAc6S
# Summary of the method: as §1
# [16] = target: Neu5Ac(a2-3)Gal(b1-4)[Fuc(a1-3)]GlcNAc
# Summary of the method: as §1
# [17] = target: Neu5Ac(a2-3)Gal(b1-4)[Fuc(a1-3)]GlcNAc(b1-3)Gal
# Summary of the method: as §1
# [18] = target: Neu5Ac(a2-3)Gal(b1-4)[Fuc(a1-3)]GlcNAc(b1-3)Gal(b1-4)GlcNAc
# Summary of the method: as §1
# [19] = target: Neu5Ac(a2-3)Gal(b1-4)[Fuc(a1-3)]GlcNAc(b1-3)Gal(b1-4)[Fuc(a1-3)]GlcNAc(b1-3)Gal(b1-4)[Fuc(a1-3)]GlcNAc
# Summary of the method: as §1
# [20] = target: Neu5Ac(a2-3)Gal(b1-4)[Fuc(a1-3)]GlcNAc6S
# Summary of the method: as §1
# [21] = target: Neu5Ac(a2-3)Gal6S(b1-4)GlcNAc
# Summary of the method: as §1
# [22] = target: Neu5Ac(a2-3)Gal6S(b1-4)[Fuc(a1-3)]GlcNAc
# Summary of the method: as §1
# Neu5Ac(a2-3)GalNAc = target: Neu5Ac(a2-3)GalNAc
# Summary of the method: as §1
# [23] = target: Neu5Ac(a2-3)GalNAc(b1-4)GlcNAc
# Summary of the method: as §1
# [24] = target: Neu5Ac(a2-3)[GalNAc(b1-4)]Gal(b1-4)Glc
# Summary of the method: as §1
# [25] = target: Neu5Ac(a2-3)[GalNAc(b1-4)]Gal(b1-4)GlcNAc
# Summary of the method: as §1
# [26] = target: Neu5Ac(a2-3)[Neu5Ac(a2-6)]GalNAc
# Summary of the method: as §1
# [27] = target: Neu5Ac(a2-6)Gal(b1-4)GlcNAc
# Summary of the method: as §1
# [28] = target: Neu5Ac(a2-6)Gal(b1-4)GlcNAc(b1-2)Man(a1-3)[Neu5Ac(a2-6)Gal(b1-4)GlcNAc(b1-2)Man(a1-6)]Man(b1-4)GlcNAc(b1-4)GlcNAc
# Summary of the method: as §1
# [29] = target: Neu5Ac(a2-6)Gal(b1-4)GlcNAc(b1-3)Gal(b1-4)GlcNAc
# Summary of the method: as §1
# [30] = target: Neu5Ac(a2-6)Gal(b1-4)GlcNAc(b1-3)Gal(b1-4)[Fuc(a1-3)]GlcNAc(b1-3)Gal(b1-4)[Fuc(a1-3)]GlcNAc
# Summary of the method: as §1
# [31] = target: Neu5Ac(a2-6)Gal(b1-4)GlcNAc6S
# Summary of the method: as §1
# Neu5Ac(a2-6)GalNAc = target: Neu5Ac(a2-6)GalNAc
# Summary of the method: as §1
# [32] = target: Neu5Ac(a2-6)GalNAc(b1-4)GlcNAc
# Summary of the method: as §1
# Neu5Ac(a2-8)Neu5Ac = target: Neu5Ac(a2-8)Neu5Ac
# Summary of the method: as §1
# [33] = target: Neu5Ac(a2-8)Neu5Ac(a2-3)Gal(b1-4)Glc
# Summary of the method: as §1
# [34] = target: Neu5Ac(a2-8)Neu5Ac(a2-3)[GalNAc(b1-4)]Gal(b1-4)Glc
# Summary of the method: as §1
# [35] = target: Neu5Ac(a2-8)Neu5Ac(a2-8)Neu5Ac
# Summary of the method: as §1
# [36] = target: Neu5Ac(a2-8)Neu5Ac(a2-8)Neu5Ac(a2-3)Gal(b1-4)Glc
# Summary of the method: as §1
# [37] = target: Neu5Ac(a2-8)Neu5Ac(a2-8)Neu5Ac(a2-3)[GalNAc(b1-4)]Gal(b1-4)Glc
# Summary of the method: as §1
# [38] = target: Neu5Ac(a2-8)Neu5Ac(a2-8)Neu5Ac(a2-8)Neu5Ac(a2-3)[GalNAc(b1-4)]Gal(b1-4)Glc
# Summary of the method: as §1
# [39] = target: Neu5Ac9Ac(a2-6)Gal(b1-4)GlcNAc
# Summary of the method: as §1
# [40] = target: Neu5Gc(a2-3)Gal(b1-3)GlcNAc
# Summary of the method: as §1
# [41] = target: Neu5Gc(a2-3)Gal(b1-3)[Fuc(a1-4)]GlcNAc
# Summary of the method: as §1
# Neu5Gc(a2-3)Gal(b1-4)Glc = target: Neu5Gc(a2-3)Gal(b1-4)Glc
# Summary of the method: as §1
# [42] = target: Neu5Gc(a2-3)Gal(b1-4)GlcNAc
# Summary of the method: as §1
# [43] = target: Neu5Gc(a2-3)Gal(b1-4)[Fuc(a1-4)]GlcNAc
# Summary of the method: as §1
# [44] = target: Neu5Gc(a2-6)Gal(b1-4)GlcNAc
# Summary of the method: as §1
# Neu5Gc(a2-6)GalNAc = target: Neu5Gc(a2-6)GalNAc
# Summary of the method: as §1
binder,measurement,setting,value
B1,glycan array binding signal (z-score),[1],0.009
same,glycan array binding signal (z-score),[2],-0.288
same,glycan array binding signal (z-score),[3],-0.261
same,glycan array binding signal (z-score),[4],-0.268
same,glycan array binding signal (z-score),[5],-0.294
same,glycan array binding signal (z-score),[6],-0.18
same,glycan array binding signal (z-score),[7],-0.287
same,glycan array binding signal (z-score),[8],-0.055
same,glycan array binding signal (z-score),[9],-0.278
same,glycan array binding signal (z-score),[10],-0.302
same,glycan array binding signal (z-score),Neu5Ac(a2-3)Gal(b1-4)Glc,0.706
same,glycan array binding signal (z-score),[11],-0.283
same,glycan array binding signal (z-score),[12],-0.29
same,glycan array binding signal (z-score),[13],-0.275
same,glycan array binding signal (z-score),[14],0.517
same,glycan array binding signal (z-score),[15],-0.236
same,glycan array binding signal (z-score),[16],-0.284
same,glycan array binding signal (z-score),[17],-0.258
same,glycan array binding signal (z-score),[18],-0.137
same,glycan array binding signal (z-score),[19],-0.257
same,glycan array binding signal (z-score),[20],-0.196
same,glycan array binding signal (z-score),[21],-0.038
same,glycan array binding signal (z-score),[22],-0.031
same,glycan array binding signal (z-score),Neu5Ac(a2-3)GalNAc,-0.207
same,glycan array binding signal (z-score),[23],-0.279
same,glycan array binding signal (z-score),[24],-0.284
same,glycan array binding signal (z-score),[25],-0.245
same,glycan array binding signal (z-score),[26],-0.295
same,glycan array binding signal (z-score),[27],-0.287
same,glycan array binding signal (z-score),[28],-0.258
same,glycan array binding signal (z-score),[29],-0.323
same,glycan array binding signal (z-score),[30],-0.242
same,glycan array binding signal (z-score),[31],-0.286
same,glycan array binding signal (z-score),Neu5Ac(a2-6)GalNAc,-0.284
same,glycan array binding signal (z-score),[32],-0.262
same,glycan array binding signal (z-score),Neu5Ac(a2-8)Neu5Ac,-0.264
same,glycan array binding signal (z-score),[33],-0.285
same,glycan array binding signal (z-score),[34],-0.298
same,glycan array binding signal (z-score),[35],-0.231
same,glycan array binding signal (z-score),[36],-0.202
same,glycan array binding signal (z-score),[37],-0.278
same,glycan array binding signal (z-score),[38],-0.285
same,glycan array binding signal (z-score),[39],-0.231
same,glycan array binding signal (z-score),[40],-0.288
same,glycan array binding signal (z-score),[41],-0.288
same,glycan array binding signal (z-score),Neu5Gc(a2-3)Gal(b1-4)Glc,-0.244
same,glycan array binding signal (z-score),[42],-0.209
same,glycan array binding signal (z-score),[43],-0.23
same,glycan array binding signal (z-score),[44],-0.306
same,glycan array binding signal (z-score),Neu5Gc(a2-6)GalNAc,-0.232
